Measured values from PMC10516938, “Conformational dynamics of cohesin/Scc2 loading complex are regulated by Smc3 acetylation and ATP binding” (Nature Communications, 2023).
Results are given in words; binding and its absence hold for the method and conditions named. Binding seen in cells or lysates may run through a third protein. Some binding calls cover weakened binding; strength is not graded here.

T1: Smc3 S72C (S. cerevisiae) (UniProt P47037)
T1 sequence: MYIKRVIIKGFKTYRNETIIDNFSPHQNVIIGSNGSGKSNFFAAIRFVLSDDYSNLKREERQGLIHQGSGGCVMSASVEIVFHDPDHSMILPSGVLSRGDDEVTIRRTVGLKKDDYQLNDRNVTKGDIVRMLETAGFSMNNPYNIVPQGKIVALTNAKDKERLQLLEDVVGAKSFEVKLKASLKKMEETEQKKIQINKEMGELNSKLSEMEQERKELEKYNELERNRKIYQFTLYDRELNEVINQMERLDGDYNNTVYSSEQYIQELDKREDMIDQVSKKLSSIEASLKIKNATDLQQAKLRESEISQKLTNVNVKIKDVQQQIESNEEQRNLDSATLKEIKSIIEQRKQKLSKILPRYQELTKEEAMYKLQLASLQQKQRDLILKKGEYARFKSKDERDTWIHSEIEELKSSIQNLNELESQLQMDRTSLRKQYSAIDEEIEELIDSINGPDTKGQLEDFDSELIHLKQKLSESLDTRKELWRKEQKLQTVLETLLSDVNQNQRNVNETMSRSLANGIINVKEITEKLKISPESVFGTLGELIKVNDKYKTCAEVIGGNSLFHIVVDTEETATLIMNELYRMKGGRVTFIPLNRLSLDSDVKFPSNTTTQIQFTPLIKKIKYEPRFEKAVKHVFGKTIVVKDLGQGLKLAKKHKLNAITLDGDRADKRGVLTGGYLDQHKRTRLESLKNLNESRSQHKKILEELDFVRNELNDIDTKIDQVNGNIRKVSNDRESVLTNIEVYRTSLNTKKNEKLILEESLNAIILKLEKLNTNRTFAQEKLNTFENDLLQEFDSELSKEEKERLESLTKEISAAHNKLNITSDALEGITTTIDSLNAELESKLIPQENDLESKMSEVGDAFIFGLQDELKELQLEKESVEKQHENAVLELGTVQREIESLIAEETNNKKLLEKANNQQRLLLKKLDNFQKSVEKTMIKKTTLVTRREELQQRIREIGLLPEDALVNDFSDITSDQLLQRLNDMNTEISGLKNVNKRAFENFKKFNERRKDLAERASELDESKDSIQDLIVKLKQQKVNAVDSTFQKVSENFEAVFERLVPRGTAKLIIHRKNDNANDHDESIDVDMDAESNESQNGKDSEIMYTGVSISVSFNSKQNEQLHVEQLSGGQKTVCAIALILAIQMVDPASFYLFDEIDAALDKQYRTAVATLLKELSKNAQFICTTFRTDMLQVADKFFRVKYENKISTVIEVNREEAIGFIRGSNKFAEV

T2: Smc3^QQ W483R Q67C (S. cerevisiae) (UniProt P47037)
T2 sequence: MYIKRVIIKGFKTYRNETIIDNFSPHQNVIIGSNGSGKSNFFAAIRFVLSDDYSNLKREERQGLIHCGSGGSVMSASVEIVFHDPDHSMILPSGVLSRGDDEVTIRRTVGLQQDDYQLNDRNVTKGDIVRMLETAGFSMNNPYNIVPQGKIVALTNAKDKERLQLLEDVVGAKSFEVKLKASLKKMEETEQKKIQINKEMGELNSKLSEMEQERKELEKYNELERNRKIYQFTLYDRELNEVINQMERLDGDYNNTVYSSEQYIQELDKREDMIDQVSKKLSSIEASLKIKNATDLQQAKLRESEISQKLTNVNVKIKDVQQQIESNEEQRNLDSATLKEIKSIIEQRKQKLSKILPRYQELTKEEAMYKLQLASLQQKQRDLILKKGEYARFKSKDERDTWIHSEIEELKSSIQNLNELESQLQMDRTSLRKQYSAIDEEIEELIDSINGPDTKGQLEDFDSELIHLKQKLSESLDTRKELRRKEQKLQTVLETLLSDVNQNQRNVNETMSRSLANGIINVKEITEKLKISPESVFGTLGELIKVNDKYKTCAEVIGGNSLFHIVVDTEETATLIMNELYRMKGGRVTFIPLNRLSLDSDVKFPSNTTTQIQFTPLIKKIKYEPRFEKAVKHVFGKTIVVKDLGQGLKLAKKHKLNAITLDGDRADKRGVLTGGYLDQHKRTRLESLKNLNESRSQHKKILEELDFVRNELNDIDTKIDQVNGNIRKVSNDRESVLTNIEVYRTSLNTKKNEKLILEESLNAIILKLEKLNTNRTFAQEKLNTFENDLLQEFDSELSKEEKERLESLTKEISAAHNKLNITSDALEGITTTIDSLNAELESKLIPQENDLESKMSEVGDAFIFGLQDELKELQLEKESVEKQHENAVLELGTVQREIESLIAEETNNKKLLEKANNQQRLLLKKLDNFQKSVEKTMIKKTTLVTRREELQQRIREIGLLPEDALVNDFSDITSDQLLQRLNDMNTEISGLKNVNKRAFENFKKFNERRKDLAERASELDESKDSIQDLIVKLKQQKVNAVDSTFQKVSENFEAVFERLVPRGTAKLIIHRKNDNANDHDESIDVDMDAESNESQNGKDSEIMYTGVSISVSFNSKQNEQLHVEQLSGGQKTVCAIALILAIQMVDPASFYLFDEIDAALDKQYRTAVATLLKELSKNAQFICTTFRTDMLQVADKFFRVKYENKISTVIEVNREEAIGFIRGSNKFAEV


Key:
[1] = target: T1, Smc3 S72C (S. cerevisiae); assay: cross-linking; in vivo BMOE cross-link of cysteine pairs in exponentially grown yeast cells (on ice, 6 min); Scc1-PK immunoprecipitated, western blot
[2] = target: T2, Smc3^QQ W483R Q67C (S. cerevisiae); assay: cross-linking; in vivo BMOE cross-link of cysteine pairs in yeast cells arrested in late G1 by non-degradable Sic1(9m); Scc1-PK immunoprecipitated, western blot, band intensities quantified

binding [1]	binding [2]	Binder
binds		Scc2 E819C (natural protein, S. cerevisiae, UniProt Q04002 1-1493, looked up, Scc2, S. cerevisiae; source: S. cerevisiae W303, in vivo, whole-cell extract) MSYPGKDKNIPGRIIEALEDLPLSYLVPKDGLAALVNAPMRVSLPFDKTIFTSADDGRDVNINVLGTANSTTSSIKNEAEKERLVFKRPSNFTSSANSVDYVPTNFLEGLSPLAQSVLSTHKGLNDSINIEKKSEIVSRPEAKHKLESVTSNAGNLSFNDNSSNKKTKTSTGVTMTQANLAEQYLNDLKNILDIVGFDQNSAEIGNIEYWLQLPNKKFVLTTNCLTKLQMTIKNITDNPQLSNSIEITWLLRLLDVMVCNIKFSKSSLKMGLDDSMLRYIALLSTIVLFNIFLLGKNDSNLHRESYIMEPVNFLSDLIESLKILTIEYGSLKIEFDTFQEALELLPKYIRNGPFLDDNVTAKLVYIFSDLLMNNDIEATTNIQFQSFWDNVKRISSDILVSLFGSFDQQRGFIIEELLSHIEKLPTKRIQKKLRKVGNQNIYITDFTFTLMSMLENINCYSFCNQMKDIAPENIDLLKNEYKKQEEFLFNIVEHINDTILERFFKNPSALRYVIDNFVQDLLLLISSPQWPVTEKILSSLLKRLLSVYSPSMQVSANIETICLQLIGNIGSTIFDIKCSTRDHEDNNLIKMINYPETLPHFFKSFEECIAYNETIKCRRSATRFLWNLRLGTILILEEYTKDAKEQIITVDNELKKILEQIKDGGLGPELENREADFSTIKLDYFSILHAFELLNLYDPYLKLILSLLAKDKIKLRSTAIKCLSMLASKDKVILSNPMVKETIHRRLNDSSASVKDAILDLVSINSSYFEFYQQINNNYNDDSIMVRKHVLRINEKMYDETNDIVTKVYVIARILMKICDEEDNIIDMARLILLNRWILKVHEVLDQPEKLKEISSSVLLVMSRVAIMNEKCSQLFDLFLNFYLLNKEAHSKEAYDKITHVLTILTDFLVQKIVELNSDDTNEKNSIVDKQNFLNLLAKFADSTVSFLTKDHITALYPYMVSDEKSDFHYYILQVFRCTFEKLANFKQKFLYDLETTLLSRLPKMNVREIDEAMPLIWSVATHRHDTARVAKACSSCLSHLHPYINKANNEEAAIVVDGKLQRLIYLSTGFARFCFPKPSNDKIAFLQEGETLYEHITKCLLVLSKDKITHVIRRVAVKNLTKLCGNHPKLFNSRHVLHLLDKEFQSDQLDIKLVILESLYDLFLLEERKSVRNTGVNSTLSSNSILKKKLLKTNRVEFANDGVCSALATRFLDNILQLCLLRDLKNSLVAIRLLKLILKFGYTNPSHSIPTVIALFASTSQYIRHVAYELLEDLFEKYETLVFSSLSRGVTKAIHYSIHTDEKYYYKHDHFLSLLEKLCGTGKKNGPKFFKVLKRIMQSYLDDITDLTSTNSSVQKSIFVLCTNISNITFVSQYDLVSLLKTIDLTTDRLKEVIMDEIGDNVSSLSVSEEKLSGIILIQLSLQDLGTYLLHLYGLRDDVLLLDIVEESELKNKQLPAKKPDISKFSAQLENIEQYSSNGKLLTYFRKHVKDT
	binds	Scc2 T1175C (natural protein, S. cerevisiae, UniProt Q04002 1-1493, looked up, Scc2, S. cerevisiae; source: S. cerevisiae W303, in vivo, whole-cell extract) MSYPGKDKNIPGRIIEALEDLPLSYLVPKDGLAALVNAPMRVSLPFDKTIFTSADDGRDVNINVLGTANSTTSSIKNEAEKERLVFKRPSNFTSSANSVDYVPTNFLEGLSPLAQSVLSTHKGLNDSINIEKKSEIVSRPEAKHKLESVTSNAGNLSFNDNSSNKKTKTSTGVTMTQANLAEQYLNDLKNILDIVGFDQNSAEIGNIEYWLQLPNKKFVLTTNCLTKLQMTIKNITDNPQLSNSIEITWLLRLLDVMVCNIKFSKSSLKMGLDDSMLRYIALLSTIVLFNIFLLGKNDSNLHRESYIMEPVNFLSDLIESLKILTIEYGSLKIEFDTFQEALELLPKYIRNGPFLDDNVTAKLVYIFSDLLMNNDIEATTNIQFQSFWDNVKRISSDILVSLFGSFDQQRGFIIEELLSHIEKLPTKRIQKKLRKVGNQNIYITDFTFTLMSMLENINCYSFCNQMKDIAPENIDLLKNEYKKQEEFLFNIVEHINDTILERFFKNPSALRYVIDNFVQDLLLLISSPQWPVTEKILSSLLKRLLSVYSPSMQVSANIETICLQLIGNIGSTIFDIKCSTRDHEDNNLIKMINYPETLPHFFKSFEECIAYNETIKCRRSATRFLWNLRLGTILILEEYTKDAKEQIITVDNELKKILEQIKDGGLGPELENREADFSTIKLDYFSILHAFELLNLYDPYLKLILSLLAKDKIKLRSTAIKCLSMLASKDKVILSNPMVKETIHRRLNDSSASVKDAILDLVSINSSYFEFYQQINNNYNDDSIMVRKHVLRINEKMYDETNDIVTKVYVIARILMKIEDEEDNIIDMARLILLNRWILKVHEVLDQPEKLKEISSSVLLVMSRVAIMNEKCSQLFDLFLNFYLLNKEAHSKEAYDKITHVLTILTDFLVQKIVELNSDDTNEKNSIVDKQNFLNLLAKFADSTVSFLTKDHITALYPYMVSDEKSDFHYYILQVFRCTFEKLANFKQKFLYDLETTLLSRLPKMNVREIDEAMPLIWSVATHRHDTARVAKACSSCLSHLHPYINKANNEEAAIVVDGKLQRLIYLSTGFARFCFPKPSNDKIAFLQEGETLYEHITKCLLVLSKDKITHVIRRVAVKNLTKLCGNHPKLFNSRHVLHLLDKEFQSDQLDIKLVILESLYDLFLLEERKSVRNCGVNSTLSSNSILKKKLLKTNRVEFANDGVCSALATRFLDNILQLCLLRDLKNSLVAIRLLKLILKFGYTNPSHSIPTVIALFASTSQYIRHVAYELLEDLFEKYETLVFSSLSRGVTKAIHYSIHTDEKYYYKHDHFLSLLEKLCGTGKKNGPKFFKVLKRIMQSYLDDITDLTSTNSSVQKSIFVLCTNISNITFVSQYDLVSLLKTIDLTTDRLKEVIMDEIGDNVSSLSVSEEKLSGIILIQLSLQDLGTYLLHLYGLRDDVLLLDIVEESELKNKQLPAKKPDISKFSAQLENIEQYSSNGKLLTYFRKHVKDT
